From the RNAGym collection of RNA variant scans (doi:10.1073/pnas.2313332121)
Variants at the background level are over-represented here.

B1: TPR 5TU (parent)
chain: GGAUCUUCUCGAUCUAACAAAAAAGACAAAUCUGCCACAAAGCUUGAGAGCAUCUUCGGAUGCAGAGGCGGCAGCCUUCGGUGGCGCGAUAGCGCCAACGUUCUCAACUAUGACACGCAAAACGCGUGCUCCGUUGAAUGGAGUUUAUCAUG

Variants of: B1
Experiment: polymerase ribozyme fitness, log enrichment relative to wild type (log ratio); higher = more active; in vitro selection for triplet polymerase activity
Summary of the method: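 After PCR construction and transcription, each subunit's mutant library from a heterodimeric triplet polymerase ribozyme was annealed with a biotinylated primer, the partner subunit and triplets. Incubation was frozen, at −7 °C, and extended constructs were gel-excised, bound to streptavidin beads and amplified by RT-PCR, in one selection round done in triplicate. Fitness is the logarithm of a genotype's enrichment divided by that of the wild type, from inverse-variance-weighted replicate averages of Illumina-sequenced inputs and outputs. The base of the logarithm is 2, and genotypes needed ≥10 input reads and ≥1 read per output.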

Polymerase ribozyme fitness (log ratio), ≤ -4.2:
GGAUCUUCUCGAUCUAACAAAAAACACAAAUCUGCCACAAAGCUUGAGAGCAUCUUCGGUUGCAGAGGCGGCAGCCUUCGGUGGCGCGAUAGAGGCAACGUUCUCAACUAUGACACGCAAAACGCGUGCUCCGUUGGAUGGAGUUUAUCAUG
GGAUCUUCUCGAUCUAACAAAAAACACAAAUCUGCCACAAAGCUUGAGAGCAUCUUCGGAUGCAGUGGCGGCAGCCUUCGGUGGCGCGAUAGCGCCAACGUUCUCAACUAUGACACGCAAAACGCGUGCUCCGUUGAAUGGAGUUUAUCAUG
GGAUCUUCUCGAUCUAACAAAAAACACAAAUCUGCCACAAAGCUUGAGAGCAUCUUCGGAUGCAGAGGCGGCAGCCUUCGGUGGCGCGAUUGCGUCAACGUUCUCAACGAUGACACGCAAGACGCGUGCUCCGUUCAAUGGAAUUUAUCAUG
GGAUCUUCUCGAUCUAACAAAAAACAUAAAUCUGCCACAAAGCUUGAGAGCAUCUUCGGAUGCAGAGGCGGUAGCCUUCGAUGACGCGAUAGCGGCAACGUUCUCAACUAUGACACGCAAAACGCGUGCUCCGUUGAAUGGUGUUUAUCAUG
GGAUCUUCUCGAUCUAACAAAAAACACAAAUCUGGCACAAAGCUUGAGUGCAUCAUAGGAUCCAGAGGCGGCAGCCUUCGGUGGCGCGAUAGCGCCAACGUUCUCAACUGUGACACGCAAAACGCGUGCUCCGUUGAAUGGAGUUUAUCGUG
GGAUCUUCUCGAUCUAACAAAAAACACAAAUCUGGCACAAAGCUUGAGAGCAUCUUCGAAUGCAGAGGCGGCAGCCUUCGGUGGCGCGAUUGCGCCAACGUUCUCAACUAUGACACGCAAAACGCGUGCUCCGUUGAAUCGAGUUUAUCAUG
GGAUCUUCUCGAUCUAACAAAAAACACAAAUCUGCCAAAAAGCUUGAGACCAUCUUCGGAUGCAGAGGCGGCAGCCUUCGGUGGCGCGAUACCGCCAACGUUCUCAACUAUGACACGCAAAACGCGUGCGCCGUUGAAUGGAGUUUAUCAUG
GGAUCUUCUCGAUCUAACAAAAAACACAAAUCUGCCAUAAAGCUUGAGAGCAUCUUCGGAUGCAGAGGCGGCUGCCUUCGGUGGCGCGAUAGCUCGAACGUUCUCAACUAUGACAGGCAAAACGCGUGCUCCGUUGAAUGGAGUUUAUCAUG
GGAUCUUCUCGAUCUAACAAAAAACACAAAUCUGCCACAAAGCUUGAGAGCAUAUUCGGAUGCAGAGGCGGCAGCUUUCGGUGGCGCAAUAGCGCCAACGUUCUCAACUAUGACACGCAAAACGCGUGCUCCGUUGAAUGGAGUUUAUCAUG
GGAUCUUCUCGAUCUAACAAAAAACACAAAUCUGCCACAAAGCUUGAGAGCAUCUUAGGAUGAAGAGGCGGCAGCCUUCGGUGGCGCGAUACCGCCAACGUUCUCAACUAUGCCACGCAAAACGCGUGCUCCGAUGAAUGGAGUUUAUCAUG
GGAUCUUCUCGAUCUAACAAAAAACACAAAUCUGCCACAAAGCUUGAGAGCAUCUUCGGAUGCAGAGGAGGCAGCAUUCGGUGGUGCGAUAGCGCCAACGUUCUCAACUAUGACACGCAAAACGCGUGCUUCGUUGAAUGGAGUUUAUCAUG
GGAUCUUCUCGAUCUAACAAAAAACACAAAUCUGCCACAAAGCUUGAGAGCAUCUUCGGAUGCAGAGGCGGUAGCCUUCGGUGGCGAGAUAGCGCCAACGUUCUCAACUAUGACACGCAAAACGCGUGCUCCGUUGAAUGGAGUUUAUCAUG
GGAUCUUCUCGAUCUAACAAAAAACACAAAUCUGCCACAAAGCUUGAGAGCAUCUUCGGAUGCAGAGGCGGCAGUCUUCGGUGGCGCGAUGGCGCCAAAGUUCUCAACUAUGACACGCAAAACUCGUGCUCCGAUGAAUGGAGUUUAUCAUG
GGAUCUUCUCGAUCUAACAAAAAACACAAAUCUGCCACAAAGCUUGAGAGCAUCUUCGGAUGCAGAGGCGGCAGCCUUAGGUGUCGCGAUAGCGCCCACGUUCUCAACUAUGACACGCAAAACGCGUGCUCCGUUGAAUGGAGUUUAUCAUG
GGAUCUUCUCGAUCUAACAAAAAACACAAAUCUGCCACAAAGCUUGAGAGCAUCUUCGGAUGCAGAGGCGGCAGCCUUCGGUGGUGCGUUAGCGCCAACGUUCUCAACUAUGACACGCAAAACGCGUGCUCCGUGGAAUGGAGUUUAUCAUG
GGAUCUUCUCGAUCUAACAAAAAACACAAAUCUGCCACAAAGCUUGAGAGCAUCUUCGGAUGCAGAGGCGGCAGCCUUCGGUGGCGAGAUAGCGCCAACUUUCUCAACUAUGACACGCAAAACGCGUGCUCCGUUGAAUGGAGUUUAUCAUG
GGAUCUUCUCGAUCUAACAAAAAACACAAAUCUGCCACAAAGCUUGAGAGCAUCUUCGGAUGCAGAGGCGGCAGCCUUCGGUGGCGGGAUAGCGCCAUCAUUCUCAACUAUGACACGCAAAACGCGUGCUCCGUUGAAUGGAGUUUAUCAUG
GGAUCUUCUCGAUCUAACAAAAAACACAAAUCUGCCACAAAGCUUGAGAGCAUCUUCGGAUGCAGAGGCGGCAGCCUUCGGUGGCGCGAUAGCGCCAACGUUCUCAACUAUGACAAGCAAAACGCGUGCUCCGUUGAAUGCAGUUCAUCAUG
GGAUCUUCUCGAUCUAACAAAAAACACAAAUCUGCCACAAAACUUGAGAGCAUCUUCUGAUGCAGAGGCGGCAGCCUUCGGUGGCGAGAUAGCGCCAACGUUCUCAACUAUGACAAGCAAAACGCGUGCUCCGUUGAAUGGAGUUUAUCAUG
